This is an account of results in paper PMC5515408.

Some of the results follow. At the low end of the ranking the order means little.

The assay concerns the target MAX:MAX (p21) (UniProt P61244-2). The assay is described as follows: protein-binding microarray (anti-MAX antibody). The settings on record: PBM: 15 mM Tris-HCl pH 7.5, 100 mM KCl, 0.075% NP40, 7.5 mM beta-mercaptoethanol, 375 ng/ul BSA, 8 ng/ul poly(dA-dT):(dA-dT), 550 ng complex, 60 min, room …; high values mean tight binding; double strand, one strand shown; sequences stand for … in CCGGC…TTAATAGCTAAGATTACTATATCGACG
In turn, TGAGACCTAGTA returned a binding signal (log2 normalized fluorescence) of -0.775.

In the case of TGACGACGCGTA, the binding signal (log2 normalized fluorescence) is -0.134.

Sequence TGACTAACGGTA showed a binding signal (log2 normalized fluorescence) of -0.199.

Sequence TGATTCGCCGTA showed a binding signal (log2 normalized fluorescence) of -0.988.

In the case of TGAATGAGTGTA, the binding signal (log2 normalized fluorescence) amounted to 0.304.

As to TGACTCTCCGTA, the binding signal (log2 normalized fluorescence) is -0.641.

Take TGAAACTCTGTA: the binding signal (log2 normalized fluorescence) is -0.918.

The sequence TGAAGGTAGGTA had a binding signal (log2 normalized fluorescence) of -0.417.

Consider TGAGAACTAGTA, for which the binding signal (log2 normalized fluorescence) was -1.04.

Turning to TGACCGACGGTA, the binding signal (log2 normalized fluorescence) is -0.371.

TGACCCTTGATA returned a binding signal (log2 normalized fluorescence) of -0.546.

Turning to TGATTCTACGTA, the binding signal (log2 normalized fluorescence) is -1.14.

Take TGAAGGACCGTA: the binding signal (log2 normalized fluorescence) was -0.677.

Turning to TGAAAATAGGTA, the binding signal (log2 normalized fluorescence) was -1.24.

In the case of TGAAACGTAGTA, the binding signal (log2 normalized fluorescence) is -0.462.

TGACACGCGGGA came in with a binding signal (log2 normalized fluorescence) of 3.09.

For TGAGCCCACGTA, the binding signal (log2 normalized fluorescence) turned out to be 0.253.

In turn, TGAATCCTTGTA gave a binding signal (log2 normalized fluorescence) of -0.96.

In turn, TGAGAGGATGTA returned a binding signal (log2 normalized fluorescence) of -0.431.

As for TGATGTTTAGTA, the binding signal (log2 normalized fluorescence) came out at 0.108.

Sequence TGACACGTGACA came in with a binding signal (log2 normalized fluorescence) of 3.44.

TGACACGTGACC returned a binding signal (log2 normalized fluorescence) of 3.18.

In the case of GGACACGTGCTA, the binding signal (log2 normalized fluorescence) was 3.15.

As for TGCCACGTAGTG, the binding signal (log2 normalized fluorescence) was 1.81.

For TGAGTGACCGTA, the binding signal (log2 normalized fluorescence) worked out at 0.109.

Consider TGACCATGGGTA, for which the binding signal (log2 normalized fluorescence) stood at 1.67.

In turn, TGATAACCGGTA showed a binding signal (log2 normalized fluorescence) of -0.891.

For the sequence TGACATAGTGTA, the binding signal (log2 normalized fluorescence) is -0.152.

Turning to TCTCACGTCGTA, the binding signal (log2 normalized fluorescence) was found to be 1.36.

Regarding TGAATGAGAGTA, the binding signal (log2 normalized fluorescence) is -0.48.

TGAGACAAAGTA registered a binding signal (log2 normalized fluorescence) of -0.9.

The sequence TGATGTTGAGTA yielded a binding signal (log2 normalized fluorescence) of -0.163.

Take TGACGAGGAGTA: the binding signal (log2 normalized fluorescence) is -0.532.

Take TGACGGCGAGTA: the binding signal (log2 normalized fluorescence) is -0.0302.

In turn, TGGCGCATGGTA gave a binding signal (log2 normalized fluorescence) of 3.17.

With TGACATGGGCTA, the binding signal (log2 normalized fluorescence) came out at 1.49.

Sequence TGATACGCTGTA returned a binding signal (log2 normalized fluorescence) of -0.487.

TGAATTGGAGTA showed a binding signal (log2 normalized fluorescence) of -1.09.

Turning to TGATCGACCGTA, the binding signal (log2 normalized fluorescence) is -0.901.

As to TGATCACCGGTA, the binding signal (log2 normalized fluorescence) came out at 0.372.

TAAGATACCACT showed a binding signal (log2 normalized fluorescence) of -0.253.

Regarding TGATGATCAGTA, the binding signal (log2 normalized fluorescence) was 0.24.

On to TGACCGTAAGTA, for which the binding signal (log2 normalized fluorescence) is -0.383.

In turn, TGATCTGGGGTA yielded a binding signal (log2 normalized fluorescence) of -0.652.

TGATTGCAAGTA had a binding signal (log2 normalized fluorescence) of -0.361.

Take TGACAGAAGGTA: the binding signal (log2 normalized fluorescence) was -0.167.

Sequence TGACTAATAGTA had a binding signal (log2 normalized fluorescence) of -1.09.

In turn, TGACGGGCAGTA registered a binding signal (log2 normalized fluorescence) of -0.309.

Sequence ACCCACGTGGTA registered a binding signal (log2 normalized fluorescence) of 3.35.

For TGACGGTCCGTA, the binding signal (log2 normalized fluorescence) is -0.69.

Take TGATGGGATGTA: the binding signal (log2 normalized fluorescence) amounted to 0.0994.

TGATAAGGCGTA had a binding signal (log2 normalized fluorescence) of -0.314.

Consider TGAACAGCGGTA, for which the binding signal (log2 normalized fluorescence) is -0.0678.

TGAATCAGGGTA: the binding signal (log2 normalized fluorescence) is -0.184.

TGACATCCGGTA showed a binding signal (log2 normalized fluorescence) of 0.0106.

As for TGAGATACCGTA, the binding signal (log2 normalized fluorescence) is -0.879.

In turn, TGAGCCCGCGTA came in with a binding signal (log2 normalized fluorescence) of -0.528.

TGAGTAGAAGTA showed a binding signal (log2 normalized fluorescence) of -1.19.

As to TGAGGCCTCGTA, the binding signal (log2 normalized fluorescence) is -0.758.

With GGACACGTCGTA, the binding signal (log2 normalized fluorescence) was 2.25.

Regarding AGACACGTGTTA, the binding signal (log2 normalized fluorescence) was determined as 3.42.

The sequence TGAAAAGTAGTA returned a binding signal (log2 normalized fluorescence) of -1.06.

As for TGAAATGCTGTA, the binding signal (log2 normalized fluorescence) stood at 0.563.

In turn, TGATCGGTGGTA registered a binding signal (log2 normalized fluorescence) of -0.666.

TGAATAGTTGTA came in with a binding signal (log2 normalized fluorescence) of -1.24.

As to TGAACTGAAGTA, the binding signal (log2 normalized fluorescence) was -0.661.

TGAGGATACGTA yielded a binding signal (log2 normalized fluorescence) of -0.712.

For TGCCACGTGCTT, the binding signal (log2 normalized fluorescence) was determined as 3.14.

On to TGACTCGTAGTA, for which the binding signal (log2 normalized fluorescence) was -0.484.

As for TGAGATTTAGTA, the binding signal (log2 normalized fluorescence) was -1.48.

For TGAACCTAAGTA, the binding signal (log2 normalized fluorescence) is -0.549.

For the sequence TGAGAGGAAGTA, the binding signal (log2 normalized fluorescence) is -0.851.

Turning to TGCAACGTCGTT, the binding signal (log2 normalized fluorescence) turned out to be 0.309.

As to TGACCTCGGGTA, the binding signal (log2 normalized fluorescence) is 0.0954.

In the case of TGATAGGACGTA, the binding signal (log2 normalized fluorescence) is -1.01.

In the case of TGAGTGTACGTA, the binding signal (log2 normalized fluorescence) was determined as 0.137.

The sequence TGAATGTCAGTA registered a binding signal (log2 normalized fluorescence) of 0.32.

For the sequence TGACTTTAAGTA, the binding signal (log2 normalized fluorescence) was -0.85.

Sequence CGACGCGTGGTA returned a binding signal (log2 normalized fluorescence) of 3.33.

TGAAGTGTGGTA registered a binding signal (log2 normalized fluorescence) of 1.17.

For the sequence TGAGTGAAAGTA, the binding signal (log2 normalized fluorescence) was -0.698.

As to TGACCTGACGTA, the binding signal (log2 normalized fluorescence) is -0.0753.

In turn, TAGCACGTGTTT yielded a binding signal (log2 normalized fluorescence) of 3.52.

On to TTGCATATTTAC, for which the binding signal (log2 normalized fluorescence) was found to be 0.0341.

TGAGGATGAGTA: the binding signal (log2 normalized fluorescence) was -0.627.

TGGTACGTGGTC had a binding signal (log2 normalized fluorescence) of 1.03.

In turn, TGAAACGGCGTA showed a binding signal (log2 normalized fluorescence) of -0.534.
